Where “and” joins values, the source holds several entries; their conditions need not be identical. Equal entries are not always repeated.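 Method: 48-hour compound exposure of cells in 96-well plates, five concentrations, linear interpolation of endpoints. Abbreviation: GI50, concentration required for 50% inhibition of growth. Definition used: TGI = concentration required for complete inhibition of growth.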 Calls of active or inactive are those of the source. Cut-off read from the data, not from the text of the source: active = GI50 below about 0.43 µM; inactive = the rest. Numbered stars: 1 amine (or outer) side, 2 acyl side, 3 side chain; on linkers, the order of the positions; unused ones are H or OH. Square brackets hold non-standard residues; d marks the D form. Peptide text beside a SMILES is read from it. * marks the point of attachment. ξ: configuration not given here. X49 = CC(C)C[C@H](N[*:1])C1=N[C@H](C(=O)[*:2])CS1; Ile(3ξ) = CCC(C)[C@H](N)C(=O)O; Allyl(1,1-Me2) = C=CC(C)(C)* A value given as a limit tells only on which side of the number the result lay.

This experiment concerns NCI-H322M lung. In words: growth of human tumour cells (NCI), 48 h.
In the case of `Clc1ccc(N=C2c3ccccc3CN2c2ccc(Cl)cc2)cc1`, the TGI is > 100 µM.

Take `CNc1ccccc1S(=O)(=O)c1ccccc1[N+](=O)[O-]`: the TGI was > 100 µM.

Turning to `CC(C)(C)OC(=O)NCC(=O)NC1CC=CCC1NC(=O)CNC(=O)OC(C)(C)C` (stereo not drawn), the TGI is > 100 µM.

As for `Cc1ccc(O)c(-c2cc(-c3cccc(Br)c3)c(C#N)c(N)n2)c1`, the TGI is > 100 µM.

As to `CCOC(=O)CCC(C(=O)OCC)n1nc2ccc(Nc3c(C)[n+]([O-])c4ccc(Cl)cc4[n+]3[O-])cc2n1` (stereo not drawn), the TGI was > 100 µM.

`CN(c1ccc(Cl)c(Cl)c1)c1cnc2cc(N)cc(N)c2n1`: the GI50 is 4.9 µM and the TGI is 16.2 µM.

Take `O=C(C(=O)c1cc(-c2ccccc2)nc2ccc3ccccc3c12)c1ccccc1`: the TGI was > 100 µM.

In the case of `O=C(O)Cc1cc(F)ccc1C(=O)O`, the TGI was > 100 µM.

Turning to `CCn1cc(C(=O)O)c(=O)c2ccc(C)nc21`, the TGI is > 100 µM.

As for `C=CC(O)(CBr)CCC(Br)C(C)(C)Cl` (stereo not drawn), the TGI was > 10 µM.

Turning to `CN(C)CCNc1c2c(c(NCCN(C)C)c3c(CN(C)C)c[nH]c13)C(=O)c1ccccc1C2=O`, the GI50 was 2.97 µM and the TGI came to 10.3 µM.

`COc1ccc(/C=C/C(=O)c2c(O)c(C)c(O)c3c2OC2=CC(O)=C(C(C)=O)C(=O)[C@]23C)cc1`: the GI50 is 0.954 µM and the TGI came out at 5.37 µM.

In the case of `COC(=O)CCCC(=O)C1=Nc2ccccc2CN(c2ccc(Cl)cc2)N1`, the TGI is > 100 µM.

As to `CN1CCN(CCCNN)CC1`, the TGI is > 100 µM.

With `O=c1[nH]c2cc([N+](=O)[O-])ccc2nc1/C(=N/Nc1ccccc1)C(O)c1ccc(Cl)cc1Cl` (stereo not drawn), the TGI is > 100 µM.

As to `Nc1cnc(Nc2cccc3ccccc23)o1`, the TGI is > 10 µM.

For the molecule `COc1cccc(-c2nnc3c(-c4ccccc4)nc4ccccc4n23)c1`, the TGI is > 100 µM.

For `NCCC1([N+](=O)[O-])C=CN=CC1` (stereo not drawn), the TGI was > 100 µM.

With `C#CCN(Cc1cc2c(=O)[nH]c(C)nc2cc1C)c1ccc(C(=O)N[C@@H](CCc2nn[nH]n2)C(=O)O)c(F)c1`, the result was inactive.

As for `COC(=O)[C@@H]1CCc2nc3ccccc3c(=O)n21`, the TGI was > 100 µM.

Regarding `NC(CCCCO)C(=O)O` (stereo not drawn), the TGI is > 100 µM.

Regarding `COC(=O)C1=C(C(=O)OC)SC2(S1)C1=C(CCC1)SC(C(=O)OC)=C2C(=O)OC`, the TGI stood at 31.2 µM.

`OCN(CO)c1ccc2c(c1)Cc1cc(F)ccc1-2` registered a TGI of 41.1 µM.

In the case of `COc1cc2c(Oc3ccc4[nH]c(C)cc4c3F)ncnc2cc1OCCCN1CCCC1`, the GI50 was 4.99 µM and the TGI amounted to 17.6 µM.

With `O=c1cn[nH]c2nc3ccccc3n12`, the TGI was > 100 µM.

With `CC(C)(C)[Si](C)(C)OC1(CCc2ccccc2OS(=O)(=O)C(F)(F)F)CCCC=C1COCc1ccccc1` (stereo not drawn), the TGI is > 100 µM.

Molecule `CC1=C(C)C(=O)C(C2=C(C3=CC(=O)C(C)=C(C)C3=O)C(=O)C(C)=C(C)C2=O)=CC1=O` registered a TGI of 47.5 µM.

With `CCN(Cc1cc(F)cc(F)c1)c1ccc(CO)c(Cl)c1`, the GI50 was 8.69 µM and the TGI is 23.2 µM.

Consider `COc1cc2c3c(c1Oc1nnnn1-c1ccccc1)-c1c(ccc4c1OCO4)C[C@H]3N(C)CC2`, for which the TGI was > 100 µM.

Take `O=C(Nc1ccn(C2CCC(CO)O2)c(=O)n1)c1ccccc1` (stereo not drawn): the TGI is > 100 µM.

For `CN(C)c1ccc(C2C(Cl)C(=O)N2NC(=O)c2c(Cl)c(Cl)c(Cl)c(Cl)c2-c2nc3ccccc3[nH]2)cc1` (stereo not drawn), the TGI was > 100 µM.

In the case of `CO[C@H]1/C=C/[C@@](C)(O)/C=C/C(=O)O[C@H](C)[C@@H](C)CC/C=C/1C`, the GI50 was 17.6 µM and the TGI amounted to 78.7 µM.

For the molecule `Clc1ccc(Cc2nc3cc(Cl)c(Cl)cc3n2CC2CCCN3CCCCC23)cc1Cl` (stereo not drawn), the TGI stood at 15.8 µM.

As to `O=C1CC(=O)c2c(N3CCCC3)sc(N3CCCC3)c21`, the TGI was > 100 µM.

Consider `CCOC(=O)C(CC(C)C)NC(=O)C(Cc1ccc(N(CCCl)CCCl)cc1)NC(C)=O` (stereo not drawn), for which the GI50 is 17.4 µM; the TGI was 35.7 µM and 40.2 µM.

As for `CCOC(=O)C1=C(C#N)S(=O)(=O)c2c(oc(C)c2C)N1`, the TGI is > 100 µM.

`CC(=O)Nc1cccc2[nH]c3ccccc3c(=O)c12` came in with a TGI of 61.8 µM.

On to `COc1ccccc1-c1cc(=O)c2c(C)cc(C)nc2[nH]1`, for which the TGI was > 100 µM.

`COc1cccc2c1C(=O)c1c(O)c3c(c(O)c1C2=O)C[C@@](O)(C(=O)CO)C[C@@H]3OC1CC(N(C)C)C(O)C(C)O1` (stereo partly drawn) yielded a TGI of 0.303 µM.

As for `CN(c1ccc(C(=O)O)cc1)c1cc(O/N=[N+](\[O-])N(C)C)c([N+](=O)[O-])cc1[N+](=O)[O-]`, the GI50 is 15.5 µM and the TGI came out at 29.4 µM.

In the case of `NC(C/C=C/P(=O)(O)O)C(=O)O` (stereo not drawn), the TGI was > 100 µM.

Take `NCCCNC(=O)c1csc(NC(=O)c2csc(NC(=O)CCCN)n2)n1`: the TGI is > 100 µM.

For `C=CC(C)(C)OC[C@@H]1NC(=O)CNC(=O)[C@@H]2CCCN2C(=O)[C@H](C(C)CC)NC(=O)[C@@H]2CSC(=N2)[C@H](CC(C)C)NC1=O` (stereo partly drawn) (cyclo(GS(Allyl(1,1-Me2))[X49][Ile(3ξ)]P)), the TGI is > 100 µM.

Consider `COc1ccc2nccc(/C=C/c3ccc(N(C)C)cc3)c2c1`, for which the TGI was > 10 µM.

On to `C=C(C)[C@@H]1/C=C(/C(C)C)CC[C@@]2(C)OC2CC[C@H](C)CC1=O` (stereo partly drawn), for which the GI50 was 35.6 µM and the TGI was > 73.5 µM.

As for `C#CCn1c(=O)[nH]c(=O)c2cccnc21`, the TGI is > 100 µM.

Regarding `COC(=O)N/N=C(/CC1(O)C(=O)Nc2ccc([N+](=O)[O-])cc21)c1ccccc1` (stereo not drawn), the TGI is > 100 µM.

For `CSc1ccc(C2=NN(c3ccccc3)C(c3ccc(-c4cc(Cl)c(Cl)cc4Cl)o3)C2)cc1` (stereo not drawn), the GI50 was > 100 µM and the TGI is > 100 µM.

In the case of `O=C(CCCBr)Nc1ccccc1C#C/C=C\C#Cc1ccccc1C(F)(F)F`, the GI50 was 21.3 µM and the TGI is > 50 µM.

Regarding `O=[N+]([O-])c1cc([N+](=O)[O-])c(NN=C(c2ccc(O)cc2)c2ccc(O)cc2)cc1Cl`, the GI50 was 1.94 µM and the TGI came out at 4.56 µM.

For `c1ccc(COC2NCCN2Cc2ccccc2)cc1` (stereo not drawn), the TGI is > 100 µM.

In turn, `O=C1C(Cl)=C(Cl)C(Cl)(Cl)C(Cl)C1(Cl)Cl` (stereo not drawn) registered a TGI of 43.5 µM.

As for `O=c1c(Nc2ccccc2)cn(CCOc2ccccc2)c(=O)n1CCOc1ccccc1`, the TGI is > 100 µM.

In the case of `COc1ccc(P2(=S)OCCOP(=S)(c3ccc(OC)cc3)S2)cc1` (stereo not drawn), the TGI was > 100 µM.

With `COc1cc(C(=O)/C=C/c2c(-c3cccs3)nc3sccn23)cc(OC)c1OC`, the GI50 was 3.35 µM and the TGI came out at 86.8 µM.

In the case of `CCc1cccc(C(C)CC)c1NC(=O)CC1C(=O)Nc2ccccc2S1(=O)=O` (stereo not drawn), the TGI came out at 77.3 µM.

Molecule `COc1ccccc1N=NC(C(=O)c1ccccc1)C(=O)c1ccccc1` gave a TGI of 36.3 µM.

Consider `Cc1ccc(N=Nc2c(C)nn(-c3ccccc3)c2C)c(Br)c1`, for which the TGI was > 100 µM.

Turning to `CC(=O)N(C)C(C(=O)N1CC(C)CC1C(=O)N(C)C1C(=O)NC(CC(C)C)C(=O)N2CC(C)CC2C(=O)NC(CC(C)C)C(=O)N(C)C(C(C)C)C(=O)N2CCCC2C(=O)N(C)C(CC(C)C)C(=O)NCC(=O)OC1C)C(C)C` (stereo not drawn), the TGI is > 100 µM.

Turning to `Cc1ccc(-c2cc(=O)c3cc4c(cc3[nH]2)OCO4)cc1`, the TGI was > 100 µM.

On to `C=C1C(O)C2C(=C(CC(C)C)C13CC3)C(=O)C(C)(C)C2O` (stereo not drawn), for which the GI50 is > 100 µM and the TGI was > 100 µM.

`CCOC(=O)CNC(=O)C(CSCC1C(=O)Nc2ccccc21)NC(=O)CCC(N)C(=O)OCC` (stereo not drawn): the TGI was 18.7 µM.

Regarding `O=C1C(=O)/C(=C/c2ccccc2)CCCCCC/C1=C/c1ccccc1`, the GI50 was 16 µM and the TGI was determined as 46.7 µM.

Regarding `COc1cc(Nc2cc(O)c3c(=O)cc(-c4ccccc4)oc3c2)cc(OC)c1`, the GI50 was 0.653 µM and the TGI was > 70.1 µM.

`CCOc1cc(NC(C)=O)ccc1C(=O)NNS(=O)(=O)c1ccc(Cl)cc1Cl`: the TGI is > 50 µM.

As for `O=C(CCC(=O)Nc1ccc(Cl)c(Cl)c1)CC(=O)c1ccc(Cl)cc1`, the TGI was > 100 µM.

Take `Cc1cc(=O)[nH]c(-n2[nH]c3c(c2=O)CCCC3)n1`: the TGI was > 100 µM.

`O=S1(=O)OCCOS(=O)(=O)C1(I)I` registered a TGI of 49 µM.

Take `Cn1c([N+](=O)[O-])cnc1/C=C1\Oc2ccc(Br)cc2C1=O`: the GI50 was 3.58 µM and the TGI was 15.2 µM.

`COc1cc(/C=C2\CCC(C)(CN(C)C)C2=O)cc(OC)c1OC` (stereo not drawn): the TGI is > 100 µM.

With `Cc1cccc(/C=N/NC(=S)Nc2ccc(Cl)cc2)n1`, the TGI is 32.1 µM.

With `CC(C#N)NCc1ccc(C(C)NC(C)C#N)cc1` (stereo not drawn), the TGI is > 100 µM.

`O=C1NC(=O)/C(=C/c2ccc3ncccc3c2)S1`: the GI50 was 12.8 µM and the TGI is > 25 µM.

On to `Cc1cc(C)nc(NS(=O)(=O)c2ccc(NC(=O)c3cccc4c(Nc5ccc(S(=O)(=O)N=C(N)N)cc5)c5ccccc5nc34)cc2)n1`, for which the TGI came out at 93.6 µM.

On to `CCCCN(CC)C(=O)C1=C(C)NC(C)=C(C(=O)N(CC)CCCC)C1`, for which the TGI was > 100 µM.

As for `[O-][n+]1c(-c2ccccc2)oc2ccccc21`, the TGI was determined as 29.7 µM.

Turning to `CC(C)(C)c1ccc2c(c1)OP1(Oc3cccc4cccnc34)(O2)Oc2ccc(C(C)(C)C)cc2O1`, the TGI was > 51.1 µM.

Take `COC(=O)C1=C(OC(=O)/C(=C/c2ccccc2)c2ccc([N+](=O)[O-])cc2)C(C(=O)OC)[C@@]2(O)[C@@H](C(=O)OC)[C@H](C)C[C@@H]1[C@@H]2C(=O)OC` (stereo partly drawn): the TGI was > 100 µM.

As for `CC1(C)C(=NNC(=S)NN)C(C)(C)C1=NNC(=S)NN`, the TGI was > 100 µM.

Turning to `CN1N(c2ccccc2)C(=O)C2=NC=C(C(=O)c3ccccc3)C(=N)C21C` (stereo not drawn), the TGI is > 100 µM.

For `CCCOc1ccc2sc(NC(=O)c3cc([N+](=O)[O-])cc([N+](=O)[O-])c3)nc2c1`, the TGI is > 100 µM.

Molecule `O=C1c2c(O)ccc(O)c2C(=O)c2c(NCCNC(=O)C(O)C(O)C(O)C(O)CO)ccc(NCCNC(=O)C(O)C(O)C(O)C(O)CO)c21` (stereo not drawn) returned a TGI of 1.07 µM.

With `C1C[OH+]CCNCC[OH+]CC[OH+]CCN1.O.[Cl-].[Pt+4]`, the GI50 was > 10 µM and the TGI was > 10 µM.

Consider `O=c1c(-c2ccccc2)c(SCCN2CCCC2)n(-c2ccccc2)c(=S)n1-c1ccccc1`, for which the TGI was > 100 µM.

(Values after PubChem BioAssay (NCI).)
